Hit rate of the full screen: of about 340,000 compounds, about 6,900 (2%) were called active. Rule as the data show it: active = inhibition above about 30%; inactive = below that, where a call was filed. Only a part is listed here, and it is no random draw. Where no call is shown, the source filed none.

This test has as its target D(2) dopamine receptor (Homo sapiens) (UniProt P14416). Put plainly: HTS Assay for Allosteric Antagonists of the Human D2 Dopamine Receptor: Primary Screen for Antagonists. Also: 0% is about no effect. As to conditions: HEK293 TREx D2 cells, calcium flux, dopamine EC80; at 10 µM; stronger effect = higher value. In short, it runs like this: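 Calcium flux kinetic readout in an inducible HEK293 TREx D2 line plated overnight at 30 C. After 180 s compound exposure, an EC80 dopamine challenge follows with another 180 s kinetic read to detect antagonism.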
Chain of UniProt P14416 (P14416 whole entry, looked up): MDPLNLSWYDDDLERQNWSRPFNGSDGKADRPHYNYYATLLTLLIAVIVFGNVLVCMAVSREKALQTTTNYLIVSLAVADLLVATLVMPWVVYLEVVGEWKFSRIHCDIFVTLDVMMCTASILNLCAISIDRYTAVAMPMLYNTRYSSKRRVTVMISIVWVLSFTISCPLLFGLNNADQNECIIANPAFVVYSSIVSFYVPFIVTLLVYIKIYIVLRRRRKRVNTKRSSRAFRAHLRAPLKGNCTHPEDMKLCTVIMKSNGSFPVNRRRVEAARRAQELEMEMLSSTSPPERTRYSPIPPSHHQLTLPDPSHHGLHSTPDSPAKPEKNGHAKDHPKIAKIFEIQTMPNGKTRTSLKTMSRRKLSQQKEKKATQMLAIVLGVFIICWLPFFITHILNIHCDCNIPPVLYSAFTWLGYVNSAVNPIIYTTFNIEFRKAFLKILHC
Background: A change in cytosolic calcium serves as a functional read-out for many receptors and channels.
The term inhibition denotes the change of the read-out against control, counted positive when it falls. Turning to `CCOc1cc(C(=O)Nc2cc3c(cc2N2CCOCC2)n(C)c(=O)n3C)cc(OCC)c1OCC`, the inhibition is -4.6%.

Regarding `Cc1ccc(CSc2nc3ccccc3c(=O)n2C)cc1`, the inhibition was active: 33.6%.

For `COc1ccc(C2Nc3ccccc3-c3cc(C)nn32)cc1OC` (configuration not stated), the inhibition came out at 18.9%.

Regarding `COc1ccc(CNC(=O)CCCN2C(=O)CSc3c2c(C)nn3-c2ccccc2)cc1`, the inhibition was -15.9%.

Regarding `COC(=O)c1cc2sc(C)cc2n1Cc1cccc(OC)c1`, the inhibition worked out at 8.3%.

For the compound `COc1ccc(Cl)cc1NC(=O)CN(C)C(=O)c1ccc(OCc2ccccc2)c(OC)c1`, the inhibition was active: 36.9%.

Consider `O=S(=O)(c1ccc(-c2csc(-c3cccnc3)n2)cc1)N1CCCCC1`, for which the inhibition was active: 36.7%.

In the case of `Cc1ccc(Cn2c(C(=O)NCc3ccccc3Cl)cc3sccc32)cc1`, the inhibition was -15.9%.

In the case of `CCC1=C(c2ccc(C)cc2)S(=O)(=O)N=C1N1CCC(C(=O)Nc2ccccc2F)CC1`, the inhibition was found to be 6.42%.

As to `Cc1nc2sccn2c(=O)c1S(=O)(=O)Nc1ccc(N2CCOCC2)c(Cl)c1`, the inhibition came to 5.44%.

`CSCCC(NC(=O)c1ccc(Cl)cc1)C(=O)OCC(C)=O` (configuration not stated): the inhibition was active: 32.1%.

Turning to `COC(=O)c1c(SCC(=O)Nc2cc(OC)cc(OC)c2)[nH]c2ccc(C)cc2c1=O`, the inhibition is -4.46%.

For `O=C(CCC(=O)N1CC2CCCN2c2ccccc21)NCc1ccc(Cl)cc1` (configuration not stated), the inhibition stood at 13.3%.

Regarding `CCC1CCC(C(=O)NC(C(=O)Nc2cccc(OC)c2)C(C)C)CC1` (configuration not stated), the inhibition was -6.44%.

In the case of `Cc1cccc(NC(=O)CSc2nnc3[nH]c(=O)cc(-c4ccccc4)n23)c1C`, the inhibition is -12.9%.

Consider `CCOc1ccc(CNCc2c(C(=O)O)c(C)n(Cc3cccc(OC)c3)c2C)cc1OC`, for which the inhibition was determined as 8.39%.

Regarding `Cc1nc2nc(CNC(=O)OC(C)(C)C)nn2c(C)c1CCC(=O)NCc1ccc(F)cc1`, the inhibition was -6.5%.

For `CCCOc1cccc(C(=O)Nc2cccc3cccnc23)c1`, the inhibition is -0.0078%.

Take `CCN(C(=O)c1nn(-c2ccc(OC)c(Cl)c2)c(=O)c2c1c1ccccc1n2C)c1cccc(C(F)(F)F)c1`: the inhibition was -19.4%.

`O=C(CN1C(=O)COc2ccc(Cl)cc21)Nc1ccc(F)cc1`: the inhibition was -22.8%.

As for `COc1ccc(-c2nc3ccc(NS(=O)(=O)c4ccc(C)cc4)cc3o2)cc1`, the inhibition was found to be 0.0338%.

Take `O=C(OCc1cc(=O)n2nc(-c3cccs3)sc2n1)c1ccc(Cl)cc1`: the inhibition turned out to be 9.38%.

In the case of `COc1cccc(CNC(=O)c2cc3c(s2)-c2ccccc2OC3)c1`, the inhibition is -6.75%.

Regarding `COc1ccc(-n2c(=O)c3c4c(sc3n(Cc3ccc(F)cc3)c2=O)CCCC4)c(OC)c1`, the inhibition came to 4.49%.

On to `Cc1nnc(SCc2cc(=O)oc3cc(O)ccc23)n1Cc1ccccc1`, for which the inhibition was active: 30.3%.

As to `COc1ccccc1NC(=O)C1=C(C)Nc2ncnn2C1c1ccccc1C(=O)O` (configuration not stated), the inhibition was 7.41%.

For the compound `COc1ccc(NC(=O)c2cc(C3CC3)nc3c2c(C)nn3-c2ccccc2)cc1`, the inhibition is 0.49%.

Regarding `Cc1ccc(OCC(=O)Nc2nnc(SCc3cc(=O)c4ccccc4[nH]3)s2)cc1`, the inhibition was -1.23%.

`CCOc1ccccc1C(=O)Nc1ccc2nc(N(CC)CC)cc(C)c2c1`: the inhibition was -2.64%.

Turning to `CCOc1ccc(CNS(=O)(=O)c2cc3c(cc2C)NC(=O)CO3)cc1OC`, the inhibition is -2.76%.

Regarding `Cc1cc(N2CCCCC2)nc2ccc(NC(=O)c3cccc(Cl)c3)cc12`, the inhibition is -27.7%.

Consider `CCOC(=O)c1c(S(=O)(=O)N2CCCC(C(=O)Nc3cccc(Cl)c3)C2)c(C)n(C)c1C` (configuration not stated), for which the inhibition turned out to be 12.9%.

As for `Cc1ccc(-c2nnc(N3CCN(C(=O)CSc4ncn[nH]4)CC3)c3ccccc23)cc1`, the inhibition was active: 46.6%.

For the compound `COc1ccccc1NC(=O)C(=O)NCCc1csc(-c2cccc(F)c2)n1`, the inhibition worked out at 0.545%.

For `CCCCN(CC)CCCNC(=O)CCN1N=C(c2ccc(OC)cc2)CCC1=O`, the inhibition is -9.8%.

Take `CCn1ccc2cc(S(=O)(=O)N3CCCN(C(=O)Nc4cccc(Cl)c4)CC3)ccc21`: the inhibition is 20.1%.

Consider `Cc1ccc(NC(=O)NCCc2c(C)nn(C)c2C)cc1Cl`, for which the inhibition is -0.665%.

For `CCOc1ccc(NC(=O)CSc2nnc(C3CC3)n2C2CC2)cc1`, the inhibition was active: 42.8%.

Consider `COc1ccc(N(C)C(=O)c2cn(C3CCCCC3)c(=O)c3c2c2ccccc2n3C)cc1`, for which the inhibition came out at 16.1%.

With `COc1ccc(C2=NN(CC(=O)NCCc3ccc(OC)c(OC)c3)C(=O)CC2)cc1`, the inhibition is -6.52%.

For `CCOc1ccc(C(=O)N2CCC(c3nc4ccccc4o3)CC2)cc1`, the inhibition was -4.2%.

In the case of `CSc1cccc(NC(=O)CN2C(=O)COc3ccc(Cl)cc32)c1`, the inhibition stood at 3.35%.

With `CCOc1ccc(OCC)c(NC(=O)c2nnn(CC(=O)Nc3ccc(C)cc3C)c2N)c1`, the inhibition was found to be 6.41%.

In the case of `Cc1cc2n(n1)C(c1cc(C(C)(C)C)c(O)cc1O)Nc1ccccc1-2` (configuration not stated), the inhibition was -9.07%.

Take `COc1ccc(-c2cc3ccc(O)c(CN4CCOCC4)c3oc2=O)cc1OC`: the inhibition was -2.77%.

On to `Cc1ccc(-c2nc3sc(CCNC(=O)c4ccc(Br)o4)c(C)n3n2)cc1`, for which the inhibition was determined as 21%.

Take `COc1ccccc1CNC(=O)C(NS(=O)(=O)c1cccs1)C(C)C` (configuration not stated): the inhibition turned out to be 0.78%.

For `COc1ccc(NC(=O)COc2ccc(-c3nn(C)c(=O)c4ccccc34)cc2)cc1`, the inhibition was -6%.

With `CCCCOc1ccc(C(=O)Nc2cccc(-c3nc4cccnc4s3)c2)cc1`, the inhibition is 6.49%.

In the case of `COc1ccccc1-c1nnc(SCC(=O)c2ccc(Cl)cc2)n1-c1ccccc1`, the inhibition was -7.48%.

Turning to `CCCCc1ccc(NC(=O)c2cc3c(=O)n4ccccc4nc3s2)cc1`, the inhibition is -7.35%.

For `CC(NC(=O)c1ccc2c(c1)CCN2S(=O)(=O)c1ccc(Cl)cc1)c1ccccc1` (configuration not stated), the inhibition is -1.22%.

Turning to `CCOc1ccc(NC(=O)CSc2nc3c(oc4ccccc43)c(=O)n2-c2ccccc2C)cc1`, the inhibition was 9.78%.

For the compound `COc1ccc(NC(c2ccccc2)c2ccncc2)cc1` (configuration not stated), the inhibition is active: 40.7%.

For the compound `CC(C)(C)OC(=O)N1CCC(c2c(C(=O)N3CCC(c4ccccc4)C3)cnn2-c2cccc(Cl)c2)CC1` (configuration not stated), the inhibition is -8.64%.

As to `CCCCCS(=O)(=O)c1oc(-c2cccs2)nc1S(=O)(=O)c1ccc(C)cc1`, the inhibition is -8.12%.

`CCCCN(CCCC)C(=O)c1cc2c(=O)n3cccc(C)c3nc2s1`: the inhibition was determined as 14.2%.

Turning to `COc1ccc(C2CC(=O)N(CC(=O)Nc3cc(C)ccc3C)c3ccccc3S2)cc1` (configuration not stated), the inhibition was -0.409%.

Regarding `Cc1cccc(OCC(=O)N(Cc2cccs2)c2ccc(Cl)cc2)c1C`, the inhibition is 11.9%.

`COC(=O)c1c(-c2cccs2)csc1NC(=O)COc1ccc(C(C)(C)C)cc1`: the inhibition is 2.51%.

For `CCOc1ccccc1NC(=O)c1nn(-c2ccc(C)cc2)c(=O)n(C)c1=O`, the inhibition stood at 16.5%.

On to `CCOc1ccccc1C1C(C(=O)N2CCCCC2)=C(C)Nc2nc3ccccc3n21` (configuration not stated), for which the inhibition was -13.8%.

With `COc1ccccc1CNc1ccc(-c2nc(-c3cccnc3)no2)cc1[N+](=O)[O-]`, the inhibition is -2.18%.

As for `Cc1ccc(C(=O)Nc2ccc(-c3cn4cccnc4n3)cc2)cc1C`, the inhibition is -10.2%.

With `COc1cccc(NC(=S)N(CCCN2CCCC(C)C2)Cc2cccs2)c1` (configuration not stated), the inhibition is active: 59.1%.

As for `COc1cc(C(C(=O)NC2CCCC2)N(C(=O)c2snc(C(N)=O)c2N)C2CCCC2)cc(OC)c1OC` (configuration not stated), the inhibition is active: 31.6%.

For `COc1ccc(N(C)C(=O)CCn2cnc3onc(-c4ccc(F)cc4)c3c2=O)c(OC)c1`, the inhibition is -8.14%.

Consider `COc1cccc(NC(=O)CN2C(=O)c3cccnc3Oc3ccc(Cl)cc32)c1`, for which the inhibition turned out to be 10.9%.

Turning to `O=C(NCC1CCN(Cc2cccc(Cl)c2)CC1)Nc1cc(Cl)ccc1Cl`, the inhibition stood at 1.71%.

Turning to `Cc1cc(C)c(NC(=O)Cc2csc(C)n2)c(Cl)c1`, the inhibition worked out at 17.4%.

With `CCN1C(=O)c2ccccc2Sc2ccc(C(=O)NCCCN(CC(C)C)CC(C)C)cc21`, the inhibition was active: 42.3%.

Turning to `COc1ccc(COCC(O)CN(Cc2ccccc2)C(C)C)cc1OC` (configuration not stated), the inhibition was active: 31.1%.

In the case of `O=C1c2oc3ccccc3c(=O)c2C(c2ccccc2)N1Cc1ccc2c(c1)OCO2` (configuration not stated), the inhibition worked out at 1.77%.

Take `CN1C(=O)c2ccccc2Sc2ccc(NC(=O)c3ccccc3F)cc21`: the inhibition was -6.77%.

In the case of `Cc1c(-c2nsc(NC(=O)c3ccccc3)n2)nnn1-c1ccc(C(F)(F)F)c(Cl)c1`, the inhibition was -3.88%.

For `CCOC(=O)c1cccc(NC(=O)[C@@H](c2ccccc2)N2Cc3ccccc3C2=O)c1`, the inhibition was -3.37%.

Consider `COc1ccc(C2CC(=O)Nc3c2c(C)nn3-c2nncc(-c3ccc(C)cc3)n2)c(OC)c1OC` (configuration not stated), for which the inhibition is -4.41%.

Turning to `Cc1csc2nc(-c3cccc(NC(=O)C(C)C)c3)cn12`, the inhibition is -1.63%.

Regarding `CCc1ccccc1NC(=O)c1ccc2c(c1)N(Cc1cccc(Cl)c1)C(=O)c1ccccc1S2(=O)=O`, the inhibition was -0.184%.

For `CCOc1ccc(-c2nc(SCC(=O)Nc3ccc4c(c3)OCO4)c(-c3ccc(F)cc3)[nH]2)cc1`, the inhibition came to 3.1%.

As to `Cc1nc2cccnc2n1-c1cccc(C(=O)N2CCN(c3ccc(Cl)cc3)CC2)c1`, the inhibition was -3.2%.

Consider `CCC(=O)N1c2ccccc2CC1C(=O)NCc1ccc(OC(C)C)cc1` (configuration not stated), for which the inhibition is -8.11%.

As to `CCN(CCCNC(=O)Cn1ncc2c([nH]c3ccc(C)cc32)c1=O)c1cccc(C)c1`, the inhibition was -1.57%.

In the case of `O=C(NCCc1ccccc1)c1ccc(CS(=O)(=O)c2ccc(Br)cc2)o1`, the inhibition was 19.2%.

For `Cc1cc2nn(-c3ccccc3)nc2cc1NC(=O)c1cccc2c(Cl)cccc12`, the inhibition was found to be 1.31%.

As for `COc1ccc(-n2ccnc2SCC(=O)Nc2ccc(F)cc2F)cc1`, the inhibition was 19.9%.

Turning to `COc1ccc(CCC(=O)N2CCc3c([nH]c4ccccc34)C2c2ccc(F)cc2)cc1` (configuration not stated), the inhibition worked out at 8.83%.

In the case of `CCSc1nnc2n(-c3cccc(C)c3)c(=O)c3c4c(sc3n12)CCCC4`, the inhibition turned out to be 12.2%.

Regarding `COc1ccc(-c2cc(C(=O)Nc3cccnc3Cl)no2)cc1OC`, the inhibition is 14.8%.

Consider `CCOc1ccccc1N1CCN(Cc2cc3c(cc2[N+](=O)[O-])OCO3)CC1`, for which the inhibition is active: 59.6%.

Regarding `Cc1ccc2onc(CNC(=O)N3CCN(c4cccc(C)c4C)CC3)c2c1`, the inhibition is -7.15%.

As for `Cc1ccc(C)c(CN2C(=O)C(=O)c3ccccc32)c1`, the inhibition came to 17.7%.

For `COc1cc(NC(=O)c2ccc(C)cc2)ccc1NC(=O)c1cc2ccccc2o1`, the inhibition was -0.639%.

In the case of `O=C1CSC2(C(=O)N(Cc3ccccc3F)c3ccccc32)N1c1ccc(F)cc1` (configuration not stated), the inhibition was -2.36%.

As for `COc1ccc(N2CCN(S(=O)(=O)CCNC(=O)C(c3ccccc3)c3ccccc3)CC2)cc1`, the inhibition was -6.31%.

As to `CS(=O)(=O)N(CC(=O)N1CCCC1)Cc1ccccc1`, the inhibition was active: 47.1%.

Regarding `CCOC(=O)c1ccc(Nc2nc3ccccc3nc2NS(=O)(=O)c2ccc(Cl)cc2)cc1`, the inhibition worked out at 5.66%.

Values taken from PubChem BioAssay AID485344 (National Center for Advancing Translational Sciences (NCATS), 2010).
